# Source: the supplement of paper PMC8728848
# The list shows a part of the results.
# B1: DC-ASPGR (Homo sapiens), CLC10_HUMAN (protein)
# chain: LDQNSKFQRDLVTLRTDFSNFTSNTVAEIQALTSQGSSLEETIASLKAEVEGFKQERQAVHSEMLLRVQQLVQDLKKLTCQVATLNNNASTEGTCCPVNWVEHQDSCYWFSHSGMSWAEAEKYCQLKNAHLVVINSREEQNFVQKYLGSAYTWMGLSDPEGAWKWVDGTDYATGFQNWKPGQPDDWQGHGLGGGEDCAHFHPDGRWNDDVCQRPYHWVCEAGLGQTSQESHVEPKSCDKTHTCPPCPAPELLGGPSVFLFPPKPKDTLMISRTPEVTCVVVDVSHEDPEVKFNWYVDGVEVHNAKTKPREEQFNSTYRVVSVLTVLHQDWLNGKEYKCKVSNKGLPSSIEKTISKAKGQPREPQVYTLPPSQEEMTKNQVSLTCLVKGFYPSDIAVEWESNGQPENNYKTTPPVLDSDGSFFLYSRLTVDKSRWQEGNVFSCSVMHEALHNHYTQK
# Key:
# Experiment in all cases: glycan array binding signal (z-score within array); higher = stronger binding
# Details in all cases: glycan notation: IUPAC condensed, linker removed
# [1] = target: Gal(b1-4)GlcNAc(b1-3)[GlcNAc(b1-6)]Gal(b1-4)GlcNAc
# Method in brief: (§1)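 The binding signal is a Z-score computed within each array and averaged over linkers. Arrays of the same protein sequence at different concentrations or buffers were also averaged together. Data originate from 3228 arrays in the Consortium for Functional Glycomics database, kept only where the protein sequence was available.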
# [2] = target: Gal(b1-4)GlcNAc(b1-6)Gal(b1-4)GlcNAc
# Method in brief: as §1
# [3] = target: Gal(b1-4)GlcNAc(b1-6)Gal(b1-4)GlcNAc(b1-6)GalNAc
# Method in brief: as §1
# [4] = target: Gal(b1-4)GlcNAc(b1-6)GalNAc
# Method in brief: as §1
# [5] = target: Gal(b1-4)GlcNAc(b1-6)[Gal(b1-3)]GalNAc
# Method in brief: as §1
# [6] = target: Gal3S(b1-3)GalNAc
# Method in brief: as §1
# [7] = target: Gal3S(b1-3)GlcNAc
# Method in brief: as §1
# [8] = target: Gal3S(b1-3)[Fuc(a1-4)]GlcNAc
# Method in brief: as §1
# [9] = target: Gal3S(b1-4)Glc
# Method in brief: as §1
# [10] = target: Gal3S(b1-4)Glc6S
# Method in brief: as §1
# [11] = target: Gal3S(b1-4)GlcNAc
# Method in brief: as §1
# [12] = target: Gal3S(b1-4)GlcNAc6S
# Method in brief: as §1
# [13] = target: Gal3S(b1-4)[Fuc(a1-3)]Glc
# Method in brief: as §1
# [14] = target: Gal3S4S(b1-4)GlcNAc
# Method in brief: as §1
# [15] = target: Gal3S6S(b1-4)GlcNAc
# Method in brief: as §1
# [16] = target: Gal3S6S(b1-4)GlcNAc6S
# Method in brief: as §1
# [17] = target: Gal4S(b1-4)GlcNAc
# Method in brief: as §1
# [18] = target: Gal4S6S(b1-4)GlcNAc
# Method in brief: as §1
# [19] = target: Gal6S(b1-4)Glc
# Method in brief: as §1
# [20] = target: Gal6S(b1-4)Glc6S
# Method in brief: as §1
# [21] = target: Gal6S(b1-4)GlcNAc
# Method in brief: as §1
# [22] = target: Gal6S(b1-4)GlcNAc6S
# Method in brief: as §1
# [23] = target: GalNAc(a1-3)Gal
# Method in brief: as §1
# [24] = target: GalNAc(a1-3)GalNAc
# Method in brief: as §1
# [25] = target: GalNAc(b1-3)Gal
# Method in brief: as §1
# [26] = target: GalNAc(b1-3)Gal(a1-4)Gal(b1-4)GlcNAc
# Method in brief: as §1
# [27] = target: GalNAc(b1-3)Gal(a1-4)Gal(b1-4)GlcNAc(b1-3)Gal(b1-4)Glc
# Method in brief: as §1
# [28] = target: GalNAc(b1-3)GalNAc
# Method in brief: as §1
# [29] = target: GalNAc(b1-4)GlcNAc
# Method in brief: as §1
# [30] = target: GalNAc(b1-4)GlcNAc(b1-2)Man(a1-3)[GalNAc(b1-4)GlcNAc(b1-2)Man(a1-6)]Man(b1-4)GlcNAc(b1-4)GlcNAc
# Method in brief: as §1
# [31] = target: Glc(a1-4)Glc
# Method in brief: as §1
# [32] = target: Glc(a1-6)Glc(a1-6)Glc
# Method in brief: as §1
# [33] = target: Glc(b1-4)Glc
# Method in brief: as §1
# [34] = target: Glc(b1-6)Glc
# Method in brief: as §1
# [35] = target: GlcA(b1-3)Gal
# Method in brief: as §1
# [36] = target: GlcA(b1-3)GlcNAc
# Method in brief: as §1
# [37] = target: GlcA(b1-6)Gal
# Method in brief: as §1
# [38] = target: GlcNAc(a1-3)Gal(b1-4)GlcNAc
# Method in brief: as §1
# [39] = target: GlcNAc(a1-4)Gal(b1-3)GlcNAc
# Method in brief: as §1
# [40] = target: GlcNAc(a1-4)Gal(b1-4)GalNAc
# Method in brief: as §1
# [41] = target: GlcNAc(a1-4)Gal(b1-4)GlcNAc
# Method in brief: as §1
# [42] = target: GlcNAc(a1-4)Gal(b1-4)GlcNAc(b1-3)Gal(b1-4)Glc
# Method in brief: as §1
# [43] = target: GlcNAc(a1-4)Gal(b1-4)GlcNAc(b1-3)Gal(b1-4)GlcNAc
# Method in brief: as §1
# [44] = target: GlcNAc(a1-4)Gal(b1-4)GlcNAc(b1-3)Gal(b1-4)GlcNAc(b1-3)Gal(b1-4)GlcNAc
# Method in brief: as §1
# [45] = target: GlcNAc(a1-4)Gal(b1-4)GlcNAc(b1-3)Gal(b1-4)[Fuc(a1-3)]GlcNAc(b1-3)Gal(b1-4)[Fuc(a1-3)]GlcNAc
# Method in brief: as §1
# [46] = target: GlcNAc(a1-6)Gal(b1-4)GlcNAc
# Method in brief: as §1
# [47] = target: GlcNAc(b1-2)Gal(b1-3)GalNAc
# Method in brief: as §1
# [48] = target: GlcNAc(b1-2)Man(a1-3)[GlcNAc(b1-2)Man(a1-6)]Man(b1-4)GlcNAc(b1-4)GlcNAc
# Method in brief: as §1
# [49] = target: GlcNAc(b1-2)Man(a1-3)[GlcNAc(b1-2)Man(a1-6)]Man(b1-4)GlcNAc(b1-4)[Fuc(a1-6)]GlcNAc
# Method in brief: as §1
# [50] = target: GlcNAc(b1-3)Gal
# Method in brief: as §1
# [51] = target: GlcNAc(b1-3)Gal(b1-3)GalNAc
# Method in brief: as §1
# [52] = target: GlcNAc(b1-3)Gal(b1-4)Glc
# Method in brief: as §1
# [53] = target: GlcNAc(b1-3)Gal(b1-4)GlcNAc
# Method in brief: as §1
# [54] = target: GlcNAc(b1-3)Gal(b1-4)GlcNAc(b1-3)Gal(b1-4)GlcNAc
# Method in brief: as §1
# [55] = target: GlcNAc(b1-3)GalNAc
# Method in brief: as §1
# [56] = target: GlcNAc(b1-3)Man
# Method in brief: as §1
# [57] = target: GlcNAc(b1-3)[GlcNAc(b1-4)][GlcNAc(b1-6)]GlcNAc
# Method in brief: as §1
# [58] = target: GlcNAc(b1-3)[GlcNAc(b1-6)]Gal(b1-4)GlcNAc
# Method in brief: as §1
# [59] = target: GlcNAc(b1-3)[GlcNAc(b1-6)]GalNAc
# Method in brief: as §1
# [60] = target: GlcNAc(b1-4)Gal(b1-4)GlcNAc
# Method in brief: as §1
# [61] = target: GlcNAc(b1-4)GlcNAc
# Method in brief: as §1
# [62] = target: GlcNAc(b1-4)GlcNAc(b1-4)GlcNAc
# Method in brief: as §1
# [63] = target: GlcNAc(b1-4)GlcNAc(b1-4)GlcNAc(b1-4)GlcNAc(b1-4)GlcNAc
# Method in brief: as §1
# [64] = target: GlcNAc(b1-4)GlcNAc(b1-4)GlcNAc(b1-4)GlcNAc(b1-4)GlcNAc(b1-4)GlcNAc
# Method in brief: as §1
# [65] = target: GlcNAc(b1-4)[GlcNAc(b1-6)]GalNAc
# Method in brief: as §1
# [66] = target: GlcNAc(b1-6)Gal(b1-4)GlcNAc
# Method in brief: as §1
# [67] = target: GlcNAc(b1-6)GalNAc
# Method in brief: as §1
# [68] = target: GlcNAc3Prop(b1-4)GlcNAc
# Method in brief: as §1
# [69] = target: GlcNAc6S(b1-3)Gal(b1-4)GlcNAc
# Method in brief: as §1
# [70] = target: Kdn(a2-3)Gal(b1-3)GalNAc
# Method in brief: as §1
# [71] = target: Kdn(a2-3)Gal(b1-3)GlcNAc
# Method in brief: as §1
# [72] = target: Kdn(a2-3)Gal(b1-4)Glc
# Method in brief: as §1
# [73] = target: Kdn(a2-3)Gal(b1-4)GlcNAc
# Method in brief: as §1
# [74] = target: Kdn(a2-3)Gal(b1-4)[Fuc(a1-3)]GlcNAc
# Method in brief: as §1
# [75] = target: Kdn(a2-6)Gal(b1-4)GlcNAc
# Method in brief: as §1
binder,measurement,setting,value
B1,glycan array binding signal (z-score),[1],-0.172
same,glycan array binding signal (z-score),[2],-0.137
same,glycan array binding signal (z-score),[3],-0.298
same,glycan array binding signal (z-score),[4],3.86
same,glycan array binding signal (z-score),[5],-0.173
same,glycan array binding signal (z-score),[6],-0.146
same,glycan array binding signal (z-score),[7],-0.229
same,glycan array binding signal (z-score),[8],-0.063
same,glycan array binding signal (z-score),[9],-0.178
same,glycan array binding signal (z-score),[10],-0.096
same,glycan array binding signal (z-score),[11],-0.212
same,glycan array binding signal (z-score),[12],-0.213
same,glycan array binding signal (z-score),[13],-0.149
same,glycan array binding signal (z-score),[14],-0.044
same,glycan array binding signal (z-score),[15],-0.208
same,glycan array binding signal (z-score),[16],-0.248
same,glycan array binding signal (z-score),[17],-0.079
same,glycan array binding signal (z-score),[18],0.091
same,glycan array binding signal (z-score),[19],-0.271
same,glycan array binding signal (z-score),[20],-0.166
same,glycan array binding signal (z-score),[21],-0.069
same,glycan array binding signal (z-score),[22],-0.161
same,glycan array binding signal (z-score),[23],1.74
same,glycan array binding signal (z-score),[24],0.117
same,glycan array binding signal (z-score),[25],1.31
same,glycan array binding signal (z-score),[26],1.9
same,glycan array binding signal (z-score),[27],0.569
same,glycan array binding signal (z-score),[28],-0.287
same,glycan array binding signal (z-score),[29],2.66
same,glycan array binding signal (z-score),[30],-0.086
same,glycan array binding signal (z-score),[31],5.49
same,glycan array binding signal (z-score),[32],-0.31
same,glycan array binding signal (z-score),[33],-0.27
same,glycan array binding signal (z-score),[34],-0.204
same,glycan array binding signal (z-score),[35],-0.276
same,glycan array binding signal (z-score),[36],-0.208
same,glycan array binding signal (z-score),[37],-0.283
same,glycan array binding signal (z-score),[38],-0.245
same,glycan array binding signal (z-score),[39],-0.216
same,glycan array binding signal (z-score),[40],-0.221
same,glycan array binding signal (z-score),[41],-0.189
same,glycan array binding signal (z-score),[42],-0.215
same,glycan array binding signal (z-score),[43],-0.092
same,glycan array binding signal (z-score),[44],-0.123
same,glycan array binding signal (z-score),[45],0.217
same,glycan array binding signal (z-score),[46],-0.268
same,glycan array binding signal (z-score),[47],-0.246
same,glycan array binding signal (z-score),[48],-0.217
same,glycan array binding signal (z-score),[49],-0.328
same,glycan array binding signal (z-score),[50],-0.264
same,glycan array binding signal (z-score),[51],-0.018
same,glycan array binding signal (z-score),[52],-0.257
same,glycan array binding signal (z-score),[53],-0.211
same,glycan array binding signal (z-score),[54],-0.206
same,glycan array binding signal (z-score),[55],-0.27
same,glycan array binding signal (z-score),[56],-0.273
same,glycan array binding signal (z-score),[57],-0.271
same,glycan array binding signal (z-score),[58],-0.173
same,glycan array binding signal (z-score),[59],-0.295
same,glycan array binding signal (z-score),[60],-0.246
same,glycan array binding signal (z-score),[61],-0.21
same,glycan array binding signal (z-score),[62],-0.071
same,glycan array binding signal (z-score),[63],-0.149
same,glycan array binding signal (z-score),[64],-0.185
same,glycan array binding signal (z-score),[65],-0.194
same,glycan array binding signal (z-score),[66],-0.228
same,glycan array binding signal (z-score),[67],4.28
same,glycan array binding signal (z-score),[68],-0.152
same,glycan array binding signal (z-score),[69],-0.165
same,glycan array binding signal (z-score),[70],-0.254
same,glycan array binding signal (z-score),[71],-0.274
same,glycan array binding signal (z-score),[72],-0.158
same,glycan array binding signal (z-score),[73],-0.292
same,glycan array binding signal (z-score),[74],-0.231
same,glycan array binding signal (z-score),[75],-0.144
